Experimental data reported in PubChem BioAssay AID504832 (National Center for Advancing Translational Sciences (NCATS), 2011).
Hit rate of the full screen: of about 310,000 compounds, about 18,000 (5.8%) were called active. Inconclusive results, whose numbers are uncertain, are shown with a selection of clear calls. The call rests on the fitted dose curve; in most records, active means well fitted inhibition curve with a large enough effect; inconclusive means small, poorly fitted or top-dose-only effect, or another doubt; inactive means no such curve, though single readings can be large or run the other way. Potencies of inconclusive entries are left out as doubtful fits.

test: Primary qHTS for delayed death inhibitors of the malarial parasite plastid, 48 hour incubation; settings: P. falciparum luciferase growth in erythrocytes; series mostly up to 28.7 µM
Procedure, shortened: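 Parasite viability was followed by luminescence of a genomically integrated firefly luciferase. Cultures held 0.1% parasitemia at 2% hematocrit (final), incubated under 5% CO2 at 37 C.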
Potency means the concentration at half of the fitted maximal effect; tags describe the fitted curve by direction and shape.

Row | SMILES | Potency
1 | COc1cc(/C=C/C(=O)O)cc(S(=O)(=O)N(CC(C)C)CC(C)C)c1OC | inactive
2 | Cc1cc(Br)ccc1OCC(=O)NNC(=O)Cc1ccccc1 | inactive
3 | C=C(C)[C@H]1Cc2c(ccc3c2O[C@@H]2COc4cc(OC)c(OC)cc4[C@@H]2C3=O)O1 | inconclusive [inhibitor, partial curve]
4 | O=S(=O)(Cc1ccccc1)c1ccccc1-c1nnc(-c2ccccc2)o1 | inconclusive [inhibitor, partial curve, poor fit]
5 | Cn1c(CC(=O)Nc2ccc(F)cc2)c(Sc2ccccc2)c2ccccc21 | inconclusive [inhibitor, partial curve, poor fit]
6 | CN(c1ccccc1)c1nc(N)c([N+](=O)[O-])c(NCCO)n1 | inconclusive [inhibitor, partial curve]
7 | Cc1noc(C)c1COc1ccc(C(=O)OCC(=O)N2CC3(C)CC2CC(C)(C)C3)cc1 (configuration not stated) | inconclusive [inhibitor, partial curve]
8 | Cc1ccc(Cl)cc1S(=O)(=O)N1CCC(C(=O)NC2CCN(Cc3ccccc3)CC2)CC1 | active: 7.38 µM
9 | CCC(C)NC(=S)N(Cc1cc2cc(C)ccc2n2nnnc12)CC(C)(C)NC(C)C (configuration not stated) | inconclusive [inhibitor, single point]
10 | CCc1nnc(NC(=O)CSc2nc(-c3ccccc3)c(-c3ccccc3)o2)s1 | inactive
11 | CCc1cc2c3c(c1)C1(C(=O)N3C(C)(C)C=C2C)C(C#N)=C(N)Oc2[nH]c(=O)[nH]c(=O)c21 (configuration not stated) | inconclusive [inhibitor, partial curve, poor fit]
12 | Cc1ccccc1OCc1nc(-c2ccc(NC(=O)c3ccc4c(c3)OCO4)cc2)no1 | inconclusive [inhibitor, single point]
13 | CCC(CC)COC(=O)C(C#N)c1nc2ccccc2nc1N1CCN(CC)CC1 (configuration not stated) | active: 10.4 µM
14 | Cc1ccc(NC(=S)NC(=O)c2c(-c3ccccc3Cl)noc2C)cc1 | active: 10.4 µM
15 | CCOC(=O)C1CCN(C(c2cc(OC)c(OC)c(OC)c2)c2sc3nc(C)nn3c2O)CC1 (configuration not stated) | inconclusive [inhibitor, partial curve, poor fit]
16 | CCCN1C2=C(C(=O)CC(C)(C)C2)C(c2ccc(F)cc2)C2=C1c1ccccc1C2=O (configuration not stated) | inconclusive [inhibitor, partial curve, poor fit]
17 | CCOC(=O)C1CCN(C(=O)C2(NC(=O)Nc3ccccc3Cl)CCCCC2)CC1 | inconclusive [inhibitor, single point]
18 | COc1ccc(CN2CN(S(=O)(=O)c3cccs3)c3nc4ccccc4nc32)cc1 | inconclusive [inhibitor, partial curve, poor fit]
19 | CCn1c(SCc2cccc(C(=O)O)c2)nnc1-c1ccc(Cl)cc1 | inconclusive [inhibitor, partial curve, poor fit]
20 | Cc1cc(C(=O)OCC(=O)N2CCc3ccccc32)c(C)o1 | inactive
21 | CC(C)n1c(SCC(=O)N2CCCC2)nc2c1c(=O)n(C)c(=O)n2C | inconclusive [inhibitor, full curve, poor fit]
22 | CCc1ccccc1NC(=O)CNC(=O)c1cccc(S(=O)(=O)N2CCN(Cc3ccccc3)CC2)c1 | inconclusive [inhibitor, single point]
23 | Cc1cccc(N(C(=O)Cn2nnc3ccccc32)C(C(=O)NC(C)(C)C)c2ccsc2)c1 (configuration not stated) | active: 10.4 µM

Row | SMILES | Potency
24 | Cc1cccc(C)c1NC(=O)CS(=O)CC(=O)Nc1ccc(F)cc1F (configuration not stated) | inactive
25 | C=CC[N+](C)(C)C/C(Cl)=C(\Cl)c1ccccc1 | inconclusive [inhibitor, full curve]
26 | O=C(Nc1ccc(F)cc1F)c1ccc(-n2cccn2)c([N+](=O)[O-])c1 | inactive
27 | COc1ccc(C)cc1-n1nnnc1SCc1cc(=O)n2cc(C)ccc2n1 | inconclusive [inhibitor, partial curve]
28 | COc1ccc(C(=O)Nc2ccc3c(c2)OCCO3)cc1Br | inactive
29 | Cc1nn(-c2ccccc2)c2sc(C(=O)N(CC(=O)NC(C)(C)C)Cc3ccco3)cc12 | inconclusive [inhibitor, partial curve]
30 | O=[N+]([O-])c1ccc2c(c1)C(c1ccccc1)=NCCN2 | inconclusive [inhibitor, full curve]
31 | CCN(C(=O)CSc1nc2ccccc2o1)c1c(N)n(Cc2ccccc2)c(=O)[nH]c1=O | inactive
32 | CCOC(=O)c1c(NC(=O)CN2CCN(C(=O)C3CCCO3)CC2)sc(C)c1C (configuration not stated) | inconclusive [inhibitor, partial curve]
33 | CC1C(=O)C(C)C(c2ccc(O)cc2)NC1c1ccc(O)cc1 (configuration not stated) | active: 6.57 µM
34 | COc1ccccc1NC(=O)CSc1c2c(nc3ccccc13)CCC2 | inactive
35 | Cc1nn(Cc2ccc(C(=O)N3CCCC3)o2)c(C)c1[N+](=O)[O-] | inactive
36 | CCc1ccc(N2CC(C(=O)Nc3ccc(S(=O)(=O)N4CCCCC4)cc3)CC2=O)cc1 (configuration not stated) | inconclusive [inhibitor, partial curve]
37 | COc1ccc(-c2cc(C(F)(F)F)n3nc(C(=O)N4CCC5(CC4)OCCO5)cc3n2)cc1OC | inconclusive [inhibitor, partial curve, poor fit]
38 | O=C(Nc1ccccc1O)c1cccc(NC(=O)c2ccco2)c1 | inconclusive [inhibitor, single point]
39 | CN(C)Cc1c(C(=O)N/N=C/c2ccc(OCc3c(F)cccc3Cl)cc2)nnn1-c1nonc1N | inconclusive [inhibitor, partial curve, poor fit]
40 | CCOc1ccccc1N1CC(C(=O)Nc2cc(Cl)ccc2C)CC1=O (configuration not stated) | inactive
41 | CCCC(C(=O)NC1CCCC1)N(C(=O)c1snc(C(N)=O)c1N)c1ccc(F)cc1 (configuration not stated) | inconclusive [inhibitor, partial curve]
42 | c1ccc(SCc2nc3ccccc3[nH]2)nc1 | inactive
43 | Cc1ccc(NC2=C/C(=N\S(=O)(=O)c3cccs3)c3ccccc3C2=O)c(C)c1 | active: 0.0928 µM
44 | O=C(CN1CCCC1)NC(c1ccccc1)c1ccccc1 | inconclusive [inhibitor, single point]
45 | O=C(Nc1ccc2c(c1)OCCO2)NC12CC3CC(CC(C3)C1)C2 | inactive
46 | O=C(Cn1c2ccccc2c(=O)c2cc([N+](=O)[O-])ccc21)Nc1ccccc1Cl | inconclusive [inhibitor, single point]

Row | SMILES | Potency
47 | Cc1csc(NC(=O)CSc2nc3sc(C)c(C)c3c(=O)[nH]2)n1 | inactive
48 | CC(=O)Nc1ccc(NC(=O)C(C)Sc2n[nH]c(-c3cccs3)n2)cc1 (configuration not stated) | inconclusive [inhibitor, single point]
49 | CC(CCc1ccccc1)NCC#N (configuration not stated) | inactive
50 | O=c1c2c3nc4ccccc4nc3n(-c3ccc4c(c3)OCCO4)c2ncn1C1CCCC1 | active: 8.28 µM
51 | CCCOc1ccc(C2=NNC(c3cccs3)=Nc3ccc(OC)cc32)cc1 | inconclusive [inhibitor, single point]
52 | Fc1ccc(Cn2nnnc2CN2CCC(n3nnc4cc(C(F)(F)F)ccc43)CC2)cc1 | inconclusive [inhibitor, partial curve]
53 | CC(C)c1ccc(/C=C2\SC(=S)N(CCC(=O)NCCCn3ccnc3)C2=O)cc1 | inconclusive [inhibitor, single point]
54 | O=C(c1cccc(Cl)c1)C1CCCN(Cc2cccc3cnccc23)C1 (configuration not stated) | inconclusive [inhibitor, single point]
55 | Cc1ccccc1S(=O)(=O)Cc1ccc(C(=O)N2CCN(c3ncccn3)CC2)o1 | inconclusive [inhibitor, single point]
56 | CCC1Nc2ncnc(N3CCN(c4ccccc4)CC3)c2N(Cc2ccc(Cl)cc2)C1=O (configuration not stated) | inconclusive [inhibitor, single point]
57 | COc1cc(Cl)nn(-c2ccccc2)c1=O | inactive
58 | CCc1ccc(CN2C(=O)CCC2(C)C(=O)NC2CCCC2)cc1 (configuration not stated) | inactive
59 | CCCCOc1ccc2c(c1)/C(=C(\C(Cl)=C(Cl)Cl)[N+](=O)[O-])N2 | inconclusive [inhibitor, full curve, poor fit]
60 | Cc1c(Br)c([N+](=O)[O-])nn1CCCC(=O)N1CCN(c2ccccc2)CC1 | inconclusive [inhibitor, partial curve, poor fit]
61 | CCCCC(=O)Nc1ccc(NC(=O)c2cc(OC)c(OC)c(OC)c2)cn1 | inconclusive [inhibitor, single point]
62 | COc1cccc(CNn2c(-c3cccc(C)c3)nc3ccccc3c2=O)c1O | inconclusive [inhibitor, partial curve, poor fit]
63 | COC(=O)C1=C(C)NC(=O)/C1=C\c1cc(C)n(-c2ccccc2F)c1C | inconclusive [inhibitor, single point]
64 | COc1cccc(C(=O)Nc2ccccc2F)c1 | inactive
65 | COc1cc(CN2CCNC(=O)C2CC(=O)NCc2csc(C(C)C)n2)cc(OC)c1 (configuration not stated) | inactive
66 | COC(=O)c1sccc1NC(=S)OC | inconclusive [inhibitor, single point]
67 | CCN(CC)Cc1cc(NC2=NS(=O)(=O)c3ccccc32)ccc1OC(=O)c1ccccc1 | inconclusive [inhibitor, partial curve]
